Reference: the supplement of paper PMC4604168 (melanoma cell lines)
Some of the results follow. Repeats are few or missing, and single values can be far off.

tested on: WM3619; assay: cell count relative to DMSO control; melanoma cells; higher = more viable cells; conditions: library dose: low library concentration; 72 h
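Note: cell number obtained by counting DAPI-stained nuclei in high-throughput microscope images with image analysis software, screen run in 1,536-well plates.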

Compound | cell count [%]
C/C(O)=C(\C#N)C(=O)Nc1cc(Br)ccc1Br + CC(C)CCN1c2nc(Nc3cc(F)c(O)c(F)c3)ncc2N(C)C(=O)C1C [BID1870] (first compound 2 µM, partner dose 0.2 µM) | 98.6
COc1ccc(C2=N[C@@H](c3ccc(Cl)cc3)[C@@H](c3ccc(Cl)cc3)N2C(=O)N2CCNC(=O)C2)c(OC(C)C)c1 [Nutlin-3] + N.N.[Cl][Pt][Cl] [cisplatin] (first compound 0.1 µM, partner dose 1.6 µM) | 96.3
O=C(Nc1cc(C(F)(F)F)cc(C(F)(F)F)c1)c1cc(Cl)ccc1O + C/C(O)=C(\C#N)C(=O)Nc1cc(Br)ccc1Br [LFM-A13] (first compound 0.016 µM, partner dose 2 µM) | 95.9
Cc1cc(SCc2sc(-c3ccc(C(F)(F)F)c(F)c3)nc2C)ccc1OCC(=O)O + C/C(O)=C(\C#N)C(=O)Nc1cc(Br)ccc1Br [LFM-A13] (first compound 2 µM, partner dose 2 µM) | 95.2
CCCCCCCCCCCCCCCCCCOP(=O)([O-])OC1CC[N+](C)(C)CC1 [Perifosine] + C[As](C)SC[C@H](NC(=O)CC[C@H](N)C(=O)O)C(=O)NCC(=O)O [Darinaparsin] (first compound 0.4 µM, partner dose 0.4 µM) | 100
O=C(/C=C/c1cccnc1)NCCCCC1CCN(C(=O)c2ccccc2)CC1 + N.N.[Cl][Pt][Cl] [cisplatin] (first compound 0.01 µM, partner dose 1.6 µM) | 65.9
COc1ccc(-c2ccc3c(N4CCOCC4)nc(N4C[C@@H](C)O[C@@H](C)C4)nc3n2)cc1CO + O=C(Oc1ccc([N+](=O)[O-])cc1)N1CCC(C(O)(c2ccc3c(c2)OCO3)c2ccc3c(c2)OCO3)CC1 [JZL184] (first compound 0.02 µM, partner dose 1 µM) | 91.1
C=C(c1ccc(C(=O)O)cc1)c1cc2c(cc1C)C(C)(C)CCC2(C)C [Bexarotene] + C[As](C)SC[C@H](NC(=O)CC[C@H](N)C(=O)O)C(=O)NCC(=O)O [Darinaparsin] (first compound 2 µM, partner dose 0.4 µM) | 76.4
CC1(C)CCC(c2ccc(Cl)cc2)=C(CN2CCN(c3ccc(C(=O)NS(=O)(=O)c4ccc(N[C@H](CCN5CCOCC5)CSc5ccccc5)c(S(=O)(=O)C(F)(F)F)c4)cc3)CC2)C1 + O=C(Oc1ccc([N+](=O)[O-])cc1)N1CCC(C(O)(c2ccc3c(c2)OCO3)c2ccc3c(c2)OCO3)CC1 [JZL184] (first compound 0.4 µM, partner dose 1 µM) | 82.9
CC(=O)O[C@@]12CO[C@@H]1C[C@H](O)[C@@]1(C)C(=O)[C@H](O)C3=C(C)[C@@H](OC(=O)[C@H](O)[C@@H](NC(=O)OC(C)(C)C)c4ccccc4)C[C@@](O)([C@@H](OC(=O)c4ccccc4)[C@H]21)C3(C)C [Docetaxel] + C/C(O)=C(\C#N)C(=O)Nc1cc(Br)ccc1Br [LFM-A13] (first compound 0.0001 µM, partner dose 2 µM) | 66.1
CC[C@]1(O)C[C@H]2CN(CCc3c([nH]c4ccccc34)[C@@](C(=O)OC)(c3cc4c(cc3OC)N(C=O)[C@H]3[C@@](O)(C(=O)OC)[C@H](OC(C)=O)[C@]5(CC)C=CCN6CC[C@]43[C@@H]65)C2)C1 [vincristine] + N.N.[Cl][Pt][Cl] [cisplatin] (first compound 0.0001 µM, partner dose 1.6 µM) | 108
O=c1[nH]nc(Sc2ncc([N+](=O)[O-])s2)n1-c1ccc2c(c1)OCCO2 + O=C(Oc1ccc([N+](=O)[O-])cc1)N1CCC(C(O)(c2ccc3c(c2)OCO3)c2ccc3c(c2)OCO3)CC1 [JZL184] (first compound 0.2 µM, partner dose 1 µM) | 107
O=S(=O)(c1ccccc1)N(CC(F)(F)F)c1ccc(C(O)(C(F)(F)F)C(F)(F)F)cc1 + C/C(O)=C(\C#N)C(=O)Nc1cc(Br)ccc1Br [LFM-A13] (first compound 1.4 µM, partner dose 2 µM) | 90.4
O=C(Nc1cc(C(F)(F)F)cc(C(F)(F)F)c1)c1cc(Cl)ccc1O + O=C(Oc1ccc([N+](=O)[O-])cc1)N1CCC(C(O)(c2ccc3c(c2)OCO3)c2ccc3c(c2)OCO3)CC1 [JZL184] (first compound 0.016 µM, partner dose 1 µM) | 98.5
